This note sets out measurements from the supplement of paper PMC12217912.

The chains are these.
B1: TEV protease; numbered along this chain (parent)
chain: MGESLFKGPRDYNPISSSICHLTNESDGHTTSLYGIGFGPFIITNKHLFRRNNGTLVVQSLHGVFKVKDTTTLQQHLVDGRDMIIIRMPKDFPPFPQKLKFREPQREERICLVTTNFQTKSMSSMVSDTSCTFPSGDGIFWKHWIQTKDGQCGSPLVSTRDGFIVGIHSASNFTNTNNYFTSVPKNFMELLTNQEAQQWVSGWRLNADSVLWGGHKVFMVKPEEPFQPVKEATQL

The list shows a part of the results. Sequences were assembled here from the parent chain. Inactive controls read about 0.05.

In the assay the parent is B1. In words: raw area under fraction-flipped curve 0-4 h after induction (AUC4h, not background-subtracted), DNA-recorder readout of cleavage of the substrate (dimensionless); higher = more cleavage of the substrate by the protease variant. Conditions: temperature: 34 °C; time window: 0-4 h after rhamnose induction. On the procedure:
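In vivo DNA recorder in E. coli TOP10(DE3) ΔrhaA at 34 °C. Each TEVp single-site mutant (parent TEVp 0) is paired with a single-site variant of the 7-mer TEVs (canonical ENLYFQ|S). The substrate sits between flexible linkers in a Bxb1-sfGFP-TEVs-SsrA fusion, so cleavage stabilises Bxb1 and speeds flipping of a recombination array, read by NGS. The value is the raw area under the fraction-flipped curve over 0-4 h after rhamnose induction (AUC4h), with ≥20 reads per time point. It is not background-subtracted; inactive controls average about 0.047.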
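Note: Bxb1 expression induced with 0.2% (w/v) L-rhamnose at OD600 near 0.5, cultures sampled hourly, flipped fraction per protease–substrate barcode pair counted by paired-end Illumina sequencing.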

Regarding MGESLFKGPRDYNPISSSICHLTNESDGHTTSLYGIGFGPFIITNKHLFRRNNGTLVVQSLHGVFKVKDTTTLQQHLVDGRDMIIIRMPKDFPPFPQKLKFREPQREERICLVTTNFQTKSMSSMTSDTSCTFPSGDGIFWKHWIQTKDGQCGSPLVSTRDGFIVGIHSASNFTNTNNYFTSVPKNFMELLTNQEAQQWVSGWRLNADSVLWGGHKVFMVKPEEPFQPVKEATQL [V126T], the “area with substrate ENLYCQS” value was 0.0871, the “area with substrate ENLYDQS” value was determined as 0.0491, the “area with substrate ENLYEQS” value came to 0.11 and the “area with substrate ENLYHQS” value was 0.0741. In addition, the “area with substrate ENLYIQS” value is 0.134, the “area with substrate ENLYKQS” value was 0.0552, the “area with substrate ENLYLQS” value is 0.0776 and the “area with substrate ENLYPQS” value was 0.0758. Moreover, the “area with substrate ENLYQQS” value came to 0.0491, the “area with substrate ENLYTQS” value stood at 0.0863, the “area with substrate ENLYVQS” value was 0.126 and the “area with substrate ENLYWQS” value is 0.0608. For the same variant, the “area with substrate ENLYYQS” value is 0.103.

Consider MGESLFKGPRDYNPISSSICHLTNESDGHTTSLYGIGFGPFIITNKHLFRRNNGTLVVQSLHGVFKVKDTTTLQQHLVDGRDMIIIRRPKDFPPFPQKLKFREPQREERICLVTTNFQTKSMSSMVSDTSCTFPSGDGIFWKHWIQTKDGQCGSPLVSTRDGFIVGIHSASNFTNTNNYFTSVPKNFMELLTNQEAQQWVSGWRLNADSVLWGGHKVFMVKPEEPFQPVKEATQL [M88R], for which the “area with substrate ENLYCQS” value came out at 0.0506, the “area with substrate ENLYEQS” value is 0.0653, the “area with substrate ENLYGQS” value came out at 0.0479 and the “area with substrate ENLYHQS” value came to 0.0435. The “area with substrate ENLYIQS” value stood at 0.0446, the “area with substrate ENLYKQS” value was 0.0363, the “area with substrate ENLYMQS” value was found to be 0.0648 and the “area with substrate ENLYPQS” value amounted to 0.0391. The “area with substrate ENLYQQS” value turned out to be 0.0465, the “area with substrate ENLYSQS” value was 0.0481, the “area with substrate ENLYTQS” value is 0.0337 and the “area with substrate ENLYYQS” value was 0.0385.

On to MGESLFKGPRDYNPISSSICHLTNESDGHTTSLYGIGFGPFIITNKHLFRRNNGTLVVQSLHGVFKVKDTTTLQQHLVDGRDMIIIRPPKDFPPFPQKLKFREPQREERICLVTTNFQTKSMSSMVSDTSCTFPSGDGIFWKHWIQTKDGQCGSPLVSTRDGFIVGIHSASNFTNTNNYFTSVPKNFMELLTNQEAQQWVSGWRLNADSVLWGGHKVFMVKPEEPFQPVKEATQL [M88P], for which the “area with substrate ENLYCQS” value came to 0.0604, the “area with substrate ENLYDQS” value is 0.0599, the “area with substrate ENLYEQS” value was determined as 0.0658 and the “area with substrate ENLYGQS” value stood at 0.0559. For the same variant, the “area with substrate ENLYHQS” value is 0.085, the “area with substrate ENLYIQS” value worked out at 0.0965, the “area with substrate ENLYKQS” value stood at 0.0375 and the “area with substrate ENLYMQS” value turned out to be 0.0641. Moreover, the “area with substrate ENLYTQS” value was 0.0471, the “area with substrate ENLYVQS” value turned out to be 0.0992 and the “area with substrate ENLYWQS” value amounted to 0.0933.

Consider MGESLFKGPRDYNPISSSICHLTNESDGHTTSLYGIGFGPFIITNKHLFRRNNGTLVVQSLHGVFKVKDTTTLQQHLVDGRDMIIIRMPKDFPPFPQKLKFREPQREERICLVTTNFQTKSMSSMVSDTSCTGPSGDGIFWKHWIQTKDGQCGSPLVSTRDGFIVGIHSASNFTNTNNYFTSVPKNFMELLTNQEAQQWVSGWRLNADSVLWGGHKVFMVKPEEPFQPVKEATQL [F133G], for which the “area with substrate ENLYCQS” value was 0.0591, the “area with substrate ENLYDQS” value stood at 0.0656, the “area with substrate ENLYEQS” value came out at 0.0701 and the “area with substrate ENLYHQS” value was 0.0692. For the same variant, the “area with substrate ENLYIQS” value is 0.133, the “area with substrate ENLYKQS” value worked out at 0.0594, the “area with substrate ENLYLQS” value was 0.0439 and the “area with substrate ENLYMQS” value worked out at 0.0875. Further, the “area with substrate ENLYNQS” value was 0.0637, the “area with substrate ENLYQQS” value came out at 0.0785, the “area with substrate ENLYRQS” value is 0.0419 and the “area with substrate ENLYSQS” value amounted to 0.0743. In addition, the “area with substrate ENLYTQS” value came to 0.0377, the “area with substrate ENLYVQS” value came out at 0.134 and the “area with substrate ENLYWQS” value worked out at 0.0842.

Regarding MGESLFKGPRDYNPISSSICHLTNESDGHTTSLYGIGFGPFIITNKHLFRRNNGTLVVQSLHGVFKVKDTTTLQQHLVDGRDMIIIRMPKDFPPFPQKLKFRERQREERICLVTTNFQTKSMSSMVSDTSCTFPSGDGIFWKHWIQTKDGQCGSPLVSTRDGFIVGIHSASNFTNTNNYFTSVPKNFMELLTNQEAQQWVSGWRLNADSVLWGGHKVFMVKPEEPFQPVKEATQL [P104R], the “area with substrate ENLYCQS” value came out at 0.0578, the “area with substrate ENLYDQS” value stood at 0.0575, the “area with substrate ENLYGQS” value was 0.0481 and the “area with substrate ENLYHQS” value came out at 0.059. For the same variant, the “area with substrate ENLYKQS” value is 0.0527, the “area with substrate ENLYLQS” value turned out to be 0.0387, the “area with substrate ENLYNQS” value came out at 0.0537 and the “area with substrate ENLYPQS” value turned out to be 0.0719. Besides, the “area with substrate ENLYQQS” value turned out to be 0.0694, the “area with substrate ENLYRQS” value worked out at 0.0611, the “area with substrate ENLYWQS” value was determined as 0.0516 and the “area with substrate ENLYYQS” value turned out to be 0.0412.

On to MGESLFKGPRDYNPISSSICHLTNESDGHTTSLYGIGFGPFIITNKHLFRRNNGTLVVQSLHGVFKVKDTTTLQQHLVDGRDMIIIRMPKDFPPFPQKLKFREPQREERICLVTTNFQMKSMSSMVSDTSCTFPSGDGIFWKHWIQTKDGQCGSPLVSTRDGFIVGIHSASNFTNTNNYFTSVPKNFMELLTNQEAQQWVSGWRLNADSVLWGGHKVFMVKPEEPFQPVKEATQL [T119M], for which the “area with substrate ENLYCQS” value is 0.103, the “area with substrate ENLYGQS” value was found to be 0.0605, the “area with substrate ENLYHQS” value is 0.0768 and the “area with substrate ENLYPQS” value came to 0.0566. In addition, the “area with substrate ENLYQQS” value came to 0.0666 and the “area with substrate ENLYYQS” value stood at 0.0622.

Turning to MGESLFKGPRDYNPISSSICHLTNESDGHTTSLYGIGFGPFIITNKHLFRRNNGTLVVQSLHGVFKVKDTTTLQQHLVDGRDMIIIRMPKDFPPFPQKLKFREPQREERICLVTTNFQTKSMSSMVSDTSCTFPSEDGIFWKHWIQTKDGQCGSPLVSTRDGFIVGIHSASNFTNTNNYFTSVPKNFMELLTNQEAQQWVSGWRLNADSVLWGGHKVFMVKPEEPFQPVKEATQL [G136E], the “area with substrate ENLYCQS” value came out at 0.0918, the “area with substrate ENLYDQS” value was determined as 0.0601, the “area with substrate ENLYEQS” value worked out at 0.0712 and the “area with substrate ENLYGQS” value amounted to 0.0686. The “area with substrate ENLYHQS” value turned out to be 0.072, the “area with substrate ENLYIQS” value came to 0.144, the “area with substrate ENLYKQS” value was 0.0905 and the “area with substrate ENLYQQS” value was 0.0617. Also, the “area with substrate ENLYRQS” value worked out at 0.0585, the “area with substrate ENLYSQS” value worked out at 0.086, the “area with substrate ENLYVQS” value is 0.094 and the “area with substrate ENLYWQS” value was determined as 0.0896. Further, the “area with substrate ENLYYQS” value came out at 0.0451.

On to MGESLFKGPRDYNPISSSICHLTNESDGHTTSLYGIGFGPFIITNKHLFRRNNGTLVVQSLHGVFKVKDTTTLQQHLVDGRDMIIIRMPKDFPPFPQKLKFREPQREERICLVTTNFQTVSMSSMVSDTSCTFPSGDGIFWKHWIQTKDGQCGSPLVSTRDGFIVGIHSASNFTNTNNYFTSVPKNFMELLTNQEAQQWVSGWRLNADSVLWGGHKVFMVKPEEPFQPVKEATQL [K120V], for which the “area with substrate ENLYCQS” value was determined as 0.0709, the “area with substrate ENLYDQS” value is 0.0482, the “area with substrate ENLYHQS” value turned out to be 0.0583 and the “area with substrate ENLYIQS” value is 0.118. Moreover, the “area with substrate ENLYNQS” value turned out to be 0.0364, the “area with substrate ENLYPQS” value was found to be 0.0822 and the “area with substrate ENLYSQS” value was 0.0746.

For the variant MGESLFKGPRDYNPISSSICHLTNESDGHTTSLYGIGFGPFIITNKHLFRRNNGTLVVQSLHGVFKVKDTTTLQQHLVDGRDMIIIRMPKDFPPFPQKLKFREPQREERICLVTTNFQTISMSSMVSDTSCTFPSGDGIFWKHWIQTKDGQCGSPLVSTRDGFIVGIHSASNFTNTNNYFTSVPKNFMELLTNQEAQQWVSGWRLNADSVLWGGHKVFMVKPEEPFQPVKEATQL [K120I], the “area with substrate ENLYCQS” value was 0.083, the “area with substrate ENLYDQS” value was 0.0688, the “area with substrate ENLYEQS” value came out at 0.0716 and the “area with substrate ENLYHQS” value came to 0.0458. Also, the “area with substrate ENLYLQS” value worked out at 0.0859, the “area with substrate ENLYNQS” value came out at 0.0627, the “area with substrate ENLYPQS” value was found to be 0.0744 and the “area with substrate ENLYQQS” value turned out to be 0.0631. Also, the “area with substrate ENLYRQS” value is 0.0527, the “area with substrate ENLYSQS” value turned out to be 0.0873 and the “area with substrate ENLYVQS” value came out at 0.0904.

MGESLFKGPRDYNPISSSICHLTNESDGHTTSLYGIGFGPFIITNKHLFRRNNGTLVVQSLHGVFKVKDTTTLQQHLVDGRDMIIIRMPKDFPPFPQKLKFREPQREERICLVTTNFQTESMSSMVSDTSCTFPSGDGIFWKHWIQTKDGQCGSPLVSTRDGFIVGIHSASNFTNTNNYFTSVPKNFMELLTNQEAQQWVSGWRLNADSVLWGGHKVFMVKPEEPFQPVKEATQL [K120E]: the “area with substrate ENLYCQS” value was 0.077, the “area with substrate ENLYDQS” value was determined as 0.0731, the “area with substrate ENLYEQS” value worked out at 0.0832 and the “area with substrate ENLYGQS” value stood at 0.066. Besides, the “area with substrate ENLYKQS” value came out at 0.0395, the “area with substrate ENLYMQS” value is 0.101, the “area with substrate ENLYNQS” value was 0.0615 and the “area with substrate ENLYPQS” value worked out at 0.072. Besides, the “area with substrate ENLYRQS” value stood at 0.0665, the “area with substrate ENLYSQS” value came out at 0.0825, the “area with substrate ENLYVQS” value is 0.0976 and the “area with substrate ENLYWQS” value was 0.0754. Further, the “area with substrate ENLYYQS” value amounted to 0.0675.
